Test results taken from PMC5467913.
These are yes or no findings as the source states them, for the method shown. For some of these results: In cells and extracts the contact can be indirect. Some binding calls cover weakened binding; strength is not graded here. Tags and fused reporters may be left off the sequences shown. One block for each binder: values may come before it.

Legend:
[1] = biological target: T1, GFP::SMA-3 (functional transgene in C. elegans) (C. elegans) (UniProt P45896); assay: co-IP; sonicates of mixed-stage transgenic C. elegans, 5 mg total protein a sample; precipitated with anti-GFP antibody, Western blot with anti-DAF-16 antibody
T1 sequence: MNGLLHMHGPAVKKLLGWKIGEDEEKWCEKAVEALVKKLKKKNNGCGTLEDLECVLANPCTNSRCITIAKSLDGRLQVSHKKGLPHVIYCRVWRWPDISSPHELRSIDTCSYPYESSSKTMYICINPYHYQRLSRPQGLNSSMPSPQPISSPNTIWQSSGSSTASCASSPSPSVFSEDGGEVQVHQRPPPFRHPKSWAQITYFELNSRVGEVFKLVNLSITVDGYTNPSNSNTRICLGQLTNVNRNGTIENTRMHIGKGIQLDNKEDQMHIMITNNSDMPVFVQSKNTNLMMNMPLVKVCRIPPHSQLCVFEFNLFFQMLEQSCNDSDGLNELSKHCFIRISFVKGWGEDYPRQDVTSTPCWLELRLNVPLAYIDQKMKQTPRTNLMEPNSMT

[2] = biological target: T2, FTT-2 (C. elegans 14-3-3 homologue; yeast two-hybrid fusion) (C. elegans) (UniProt Q20655); assay: two-hybrid; pGBKT7 and pGADT7 fusions in yeast strain AH109; selection on -Leu/-Trp/-His with 3 mM 3-AT and on -Leu/-Trp/-Ade
T2 sequence: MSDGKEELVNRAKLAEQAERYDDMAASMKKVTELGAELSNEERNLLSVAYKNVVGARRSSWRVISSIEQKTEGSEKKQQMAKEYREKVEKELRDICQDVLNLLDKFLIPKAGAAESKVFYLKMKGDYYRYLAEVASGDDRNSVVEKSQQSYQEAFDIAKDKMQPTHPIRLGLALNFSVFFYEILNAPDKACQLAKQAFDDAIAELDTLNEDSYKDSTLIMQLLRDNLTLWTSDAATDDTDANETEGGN

[3] = biological target: T3, GFP::SMA-3 (recombinant, in HEK293T cells) (C. elegans) (UniProt P45896); assay: co-IP; DAF-16::V5 co-expressed with SMA-2::GFP or GFP::SMA-3 in HEK293T cells
T3 sequence: T1 sequence

[4] = biological target: T4, SMA-2::GFP (recombinant, in HEK293T cells) (C. elegans) (UniProt Q02330); assay: as above
T4 sequence: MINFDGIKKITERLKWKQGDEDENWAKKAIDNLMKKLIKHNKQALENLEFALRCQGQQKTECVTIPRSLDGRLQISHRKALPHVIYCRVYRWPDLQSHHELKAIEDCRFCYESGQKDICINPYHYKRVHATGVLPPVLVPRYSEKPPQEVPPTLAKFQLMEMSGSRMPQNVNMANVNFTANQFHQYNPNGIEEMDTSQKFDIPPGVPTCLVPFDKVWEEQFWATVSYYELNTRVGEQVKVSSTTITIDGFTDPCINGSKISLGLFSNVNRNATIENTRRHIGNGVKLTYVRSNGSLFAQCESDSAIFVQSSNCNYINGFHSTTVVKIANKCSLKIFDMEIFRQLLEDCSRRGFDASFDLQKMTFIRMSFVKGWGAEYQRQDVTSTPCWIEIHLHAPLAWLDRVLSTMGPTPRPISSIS

[5] = biological target: T5, DAF-16 (yeast two-hybrid fusion) (C. elegans) (UniProt O16850); assay: two-hybrid; pGBKT7 and pGADT7 fusions in yeast strain AH109; selection on -Leu/-Trp/-His with 3 mM 3-AT and on -Leu/-Trp/-Ade
T5 sequence: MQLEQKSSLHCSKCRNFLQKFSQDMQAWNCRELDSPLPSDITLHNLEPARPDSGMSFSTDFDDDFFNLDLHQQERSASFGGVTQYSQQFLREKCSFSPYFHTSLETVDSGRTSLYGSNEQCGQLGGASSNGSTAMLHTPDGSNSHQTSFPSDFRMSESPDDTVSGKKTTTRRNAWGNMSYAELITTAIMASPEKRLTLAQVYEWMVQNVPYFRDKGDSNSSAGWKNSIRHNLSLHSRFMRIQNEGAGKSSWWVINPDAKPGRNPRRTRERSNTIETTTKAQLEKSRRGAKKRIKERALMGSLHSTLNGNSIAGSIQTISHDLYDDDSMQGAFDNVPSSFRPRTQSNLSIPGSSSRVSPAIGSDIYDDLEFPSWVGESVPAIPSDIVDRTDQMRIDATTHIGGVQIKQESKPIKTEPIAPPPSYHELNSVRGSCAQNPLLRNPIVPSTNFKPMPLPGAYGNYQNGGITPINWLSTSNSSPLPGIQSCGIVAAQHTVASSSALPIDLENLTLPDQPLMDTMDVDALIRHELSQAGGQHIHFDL

[6] = biological target: T6, SMA-3 (yeast two-hybrid fusion) (C. elegans) (UniProt P45896); assay: as above
T6 sequence: T1 sequence

- binding [1]: binds
B1: DAF-16 (C. elegans FOXO transcription factor), endogenous (protein, UniProt O16850 1-541)
chain: T5 sequence

- binding [2]: binds
B2: DAF-16 (yeast two-hybrid fusion) (protein, UniProt O16850 1-541)
chain: T5 sequence

- binding [3]: binds
- binding [4]: binds
B3: DAF-16::V5 (recombinant, in HEK293T cells) (protein, UniProt O16850 1-541)
chain: T5 sequence

- binding [5]: binds
- binding [6]: no binding
B4: SMA-2 (yeast two-hybrid fusion) (protein, UniProt Q02330 1-418)
chain: T4 sequence

- binding [5]: binds
B5: SMA-3 (yeast two-hybrid fusion) (protein, UniProt P45896 1-393)
chain: T1 sequence
